The source of these data is publication PMC2765987 (2009).

Assay [1] has as its target T1, PP6R3, endogenous SAPS domain regulatory subunit of PP6 (human (endogenous in HEK293, HeLa, HepG2, Jurkat)) (UniProt Q5H9R7).
T1 sequence: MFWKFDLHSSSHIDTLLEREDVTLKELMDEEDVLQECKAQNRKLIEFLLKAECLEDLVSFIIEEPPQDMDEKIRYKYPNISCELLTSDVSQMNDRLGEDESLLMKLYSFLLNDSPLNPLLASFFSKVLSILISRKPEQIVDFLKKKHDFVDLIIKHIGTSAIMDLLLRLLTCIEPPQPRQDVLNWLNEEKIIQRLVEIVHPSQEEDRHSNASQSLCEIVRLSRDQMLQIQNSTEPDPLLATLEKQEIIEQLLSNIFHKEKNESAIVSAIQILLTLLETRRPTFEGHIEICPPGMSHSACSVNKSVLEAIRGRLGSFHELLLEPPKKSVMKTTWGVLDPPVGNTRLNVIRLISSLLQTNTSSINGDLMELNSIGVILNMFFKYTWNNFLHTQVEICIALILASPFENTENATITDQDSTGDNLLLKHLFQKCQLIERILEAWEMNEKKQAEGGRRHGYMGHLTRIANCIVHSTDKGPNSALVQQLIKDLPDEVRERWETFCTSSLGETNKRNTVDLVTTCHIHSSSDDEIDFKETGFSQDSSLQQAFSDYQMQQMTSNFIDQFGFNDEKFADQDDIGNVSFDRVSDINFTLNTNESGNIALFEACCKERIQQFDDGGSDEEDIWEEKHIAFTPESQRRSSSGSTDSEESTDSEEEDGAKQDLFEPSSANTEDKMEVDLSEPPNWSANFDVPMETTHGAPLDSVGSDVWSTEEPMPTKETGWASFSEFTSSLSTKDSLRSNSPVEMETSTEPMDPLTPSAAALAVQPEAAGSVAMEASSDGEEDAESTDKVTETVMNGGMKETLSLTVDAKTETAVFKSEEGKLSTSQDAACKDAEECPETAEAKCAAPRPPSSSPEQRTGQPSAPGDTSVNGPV
Put plainly: co-IP; co-precipitation from extracts of HeLa, Jurkat and HepG2 cells (not shown).

The target of assay [2] is T2, FLAG-tagged PP6R3 (full-length, residues 1-873) (human) (UniProt Q5H9R7).
T2 sequence: T1 sequence
Put plainly: co-IP; FLAG-tagged PP6R3 and fragments expressed in HEK293 cells, precipitated with anti-FLAG (M2) beads; endogenous PP6c detected by immunoblotting. A general note: Immunoblotting shows a protein as a band on a membrane.

Assay [3] addresses T3, FLAG-tagged PP6R3 SAPS region (residues 1-513) (human) (UniProt Q5H9R7).
T3 sequence: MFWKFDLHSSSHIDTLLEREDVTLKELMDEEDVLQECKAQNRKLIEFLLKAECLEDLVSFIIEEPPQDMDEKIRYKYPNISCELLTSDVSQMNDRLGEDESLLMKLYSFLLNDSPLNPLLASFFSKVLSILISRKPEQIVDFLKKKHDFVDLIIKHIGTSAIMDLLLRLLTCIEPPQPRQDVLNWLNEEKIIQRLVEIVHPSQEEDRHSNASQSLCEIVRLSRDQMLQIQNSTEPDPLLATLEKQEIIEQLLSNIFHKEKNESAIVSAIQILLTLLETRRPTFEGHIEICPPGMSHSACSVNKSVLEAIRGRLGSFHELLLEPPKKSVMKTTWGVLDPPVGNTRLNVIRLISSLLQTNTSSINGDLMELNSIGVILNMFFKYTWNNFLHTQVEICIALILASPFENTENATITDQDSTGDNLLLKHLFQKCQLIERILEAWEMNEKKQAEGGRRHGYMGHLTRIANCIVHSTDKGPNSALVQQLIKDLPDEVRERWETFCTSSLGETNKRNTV
Described as above.

Assay [4] deals with T4, FLAG-tagged PP6R3 truncated SAPS region (1-355) (human) (UniProt Q5H9R7).
T4 sequence: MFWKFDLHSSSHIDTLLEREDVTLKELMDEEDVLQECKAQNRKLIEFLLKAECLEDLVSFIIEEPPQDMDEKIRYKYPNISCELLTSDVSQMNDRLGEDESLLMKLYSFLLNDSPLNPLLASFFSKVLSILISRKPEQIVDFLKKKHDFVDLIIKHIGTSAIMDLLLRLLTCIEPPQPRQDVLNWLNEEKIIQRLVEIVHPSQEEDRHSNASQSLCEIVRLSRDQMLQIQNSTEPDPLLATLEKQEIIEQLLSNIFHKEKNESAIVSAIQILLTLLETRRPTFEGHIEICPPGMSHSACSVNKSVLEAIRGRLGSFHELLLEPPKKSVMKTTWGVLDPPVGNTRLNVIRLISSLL
The description is as above.

In assay [5] the target is T1, PP6R3, endogenous SAPS domain regulatory subunit of PP6 (human (endogenous in HEK293, HeLa, HepG2, Jurkat)). Put plainly: co-IP; endogenous PP6R3 precipitated from cell extracts with immobilised sheep anti-PP6R3 antibody, overnight at 4°C, lysis buffer with 1% NP-40 and 150 mM NaCl; PP6c detected by immunoblotting; two rounds of immunoprecipitation for depletion.
Assay [6] deals with T2, FLAG-tagged PP6R3 (full-length, residues 1-873) (human). Put plainly: co-IP; FLAG-tagged PP6R3 wild type and charge-reversal mutants expressed in HEK293 cells, precipitated with immobilised anti-FLAG antibody; co-precipitated endogenous PP6c quantified by fluorescent immunoblotting, normalised to FLAG staining, wild type set as 100; 3 independent experiments.
Assay [7] deals with T5, FLAG-tagged full length PP6R3 mutant D113R (human) (UniProt Q5H9R7).
T5 sequence: T1 sequence with D113R
The description is as above.

The target of assay [8] is T6, FLAG-tagged full length PP6R3 mutant E204-205K (human) (UniProt Q5H9R7).
T6 sequence: T1 sequence with E204K, E205K
The assay is described as above.

The target in assay [9] is T7, FLAG-tagged full length PP6R3 mutant E259-262K (human) (UniProt Q5H9R7).
T7 sequence: T1 sequence with E259K, E262K
The assay is described as above.

Positions count from the first letter of the chain named. No constants are given. Whether binding was seen depends on the method and setting. Binding seen in cells or lysates may run through a third protein. Some results given as binding are weak or reduced against the parent protein; the word gives no strength. For part of these data: Sequences can lack the tags named with a protein.

B1: PP6 catalytic subunit, endogenous (enzyme, UniProt O00743 1-305)
chain: MAPLDLDKYVEIARLCKYLPENDLKRLCDYVCDLLLEESNVQPVSTPVTVCGDIHGQFYDLCELFRTGGQVPDTNYIFMGDFVDRGYYSLETFTYLLALKAKWPDRITLLRGNHESRQITQVYGFYDECQTKYGNANAWRYCTKVFDMLTVAALIDEQILCVHGGLSPDIKTLDQIRTIERNQEIPHKGAFCDLVWSDPEDVDTWAISPRGAGWLFGAKVTNEFVHINNLKLICRAHQLVHEGYKFMFDEKLVTVWSAPNYCYRCGNIASIMVFKDVNTREPKLFRAVPDSERVIPPRTTTPYFL
As to B1, the binding result in [1] is listed as “binds”; in assay [2], “binds”; in [3], “binds”; in assay [4], “no binding”; in assay [5], “binds”; in assay [6], “binds”. Also, the binding result in [7], in assay [8] and in assay [9] was “binds” in each case.
